Data as given in publication PMC6303091.
Results are given in words; binding and its absence hold for the method and conditions named. Some entries that bind do so weakly or less than the wild type.

Protein sequences, listed by entry. Tags and fused reporters are not part of them.
UniProt Q9SV55: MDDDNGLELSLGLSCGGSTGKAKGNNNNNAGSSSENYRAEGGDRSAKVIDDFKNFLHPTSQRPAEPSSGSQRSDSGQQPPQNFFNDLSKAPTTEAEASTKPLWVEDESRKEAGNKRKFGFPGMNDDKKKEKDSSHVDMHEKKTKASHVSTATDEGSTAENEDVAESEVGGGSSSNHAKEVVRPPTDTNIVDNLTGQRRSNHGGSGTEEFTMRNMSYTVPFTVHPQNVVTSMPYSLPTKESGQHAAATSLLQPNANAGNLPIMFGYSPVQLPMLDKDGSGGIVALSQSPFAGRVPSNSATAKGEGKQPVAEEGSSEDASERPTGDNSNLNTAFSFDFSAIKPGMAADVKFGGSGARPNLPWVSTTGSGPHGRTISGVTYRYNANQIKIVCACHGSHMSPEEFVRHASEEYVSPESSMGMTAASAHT
UniProt Q8GY55: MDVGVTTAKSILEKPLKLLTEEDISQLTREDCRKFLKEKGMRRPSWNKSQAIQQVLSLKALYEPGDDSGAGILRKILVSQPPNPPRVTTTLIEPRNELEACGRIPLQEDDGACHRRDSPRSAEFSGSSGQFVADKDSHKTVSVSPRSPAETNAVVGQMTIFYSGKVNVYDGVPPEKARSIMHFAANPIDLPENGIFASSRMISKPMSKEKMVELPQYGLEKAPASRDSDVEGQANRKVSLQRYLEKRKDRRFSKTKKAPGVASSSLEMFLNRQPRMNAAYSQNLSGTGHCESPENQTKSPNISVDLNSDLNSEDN
UniProt Q7XA73: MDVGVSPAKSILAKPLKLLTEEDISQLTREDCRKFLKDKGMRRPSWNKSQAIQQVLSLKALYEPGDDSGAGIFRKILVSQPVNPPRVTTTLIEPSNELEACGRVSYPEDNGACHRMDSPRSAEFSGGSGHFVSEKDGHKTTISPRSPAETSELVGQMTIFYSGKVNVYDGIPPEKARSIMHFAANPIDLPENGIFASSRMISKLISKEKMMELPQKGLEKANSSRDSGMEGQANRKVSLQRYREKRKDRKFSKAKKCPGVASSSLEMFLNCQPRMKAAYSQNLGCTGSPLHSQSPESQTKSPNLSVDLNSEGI
UniProt P93830: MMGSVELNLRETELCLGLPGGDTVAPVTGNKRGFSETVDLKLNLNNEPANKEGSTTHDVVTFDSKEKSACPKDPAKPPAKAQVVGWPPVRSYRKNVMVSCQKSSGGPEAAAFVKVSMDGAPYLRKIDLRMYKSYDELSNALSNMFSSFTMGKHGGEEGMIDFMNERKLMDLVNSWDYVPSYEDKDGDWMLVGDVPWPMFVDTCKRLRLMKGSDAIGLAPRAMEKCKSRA

T1: TOPLESS amino-terminal region (TPL-N), bait (A. thaliana) (UniProt Q94AI7)
T1 sequence: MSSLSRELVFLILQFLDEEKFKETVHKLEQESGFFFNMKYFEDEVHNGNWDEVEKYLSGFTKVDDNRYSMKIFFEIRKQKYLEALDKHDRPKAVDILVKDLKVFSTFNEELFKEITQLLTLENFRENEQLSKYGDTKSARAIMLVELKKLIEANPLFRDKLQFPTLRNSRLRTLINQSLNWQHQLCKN

B1: JAZ10 (AT5G13220), library prey (protein, UniProt Q93ZM9 1-197)
chain: MSKATIELDFLGLEKKQTNNAPKPKFQKFLDRRRSFRDIQGAISKIDPEIIKSLLASTGNNSDSSAKSRSVPSTPREDQPQIPISPVHASLARSSTELVSGTVPMTIFYNGSVSVFQVSRNKAGEIMKVANEAASKKDESSMETDLSVILPTTLRPKLFGQNLEGDLPIARRKSLQRFLEKRKERLVSTSPYYPTSA
B2: JAZ5 (AT1G17380), library prey (protein, UniProt Q9LDU5 1-274)
chain: MSSSNENAKAQAPEKSDFTRRCSLLSRYLKEKGSFGNIDLGLYRKPDSSLALPGKFDPPGKQNAMHKAGHSKGEPSTSSGGKVKDVADLSESQPGSSQLTIFFGGKVLVYNEFPVDKAKEIMEVAKQAKPVTEINIQTPINDENNNNKSSMVLPDLNEPTDNNHLTKEQQQQQEQNQIVERIARRASLHRFFAKRKDRAVARAPYQVNQNAGHHRYPPKPEIVTGQPLEAGQSSQRPPDNAIGQTMAHIKSDGDKDDIMKIEEGQSSKDLDLRL
B3: JAZ4, cloned prey (protein, UniProt Q58G47 1-310)
chain: MERDFLGLGSKLSPITVKEETNEDSAPSRGMMDWSFSSKVGSGPQFLSFGTSQQETRVNTVNDHLLSSAAMDQNQRTYFSSLQEDRVFPGSSQQDQTTITVSMSEPNYINSFINHQHLGGSPIMAPPVSVFPAPTTIRSSSKPLPPQLTIFYAGSVLVYQDIAPEKAQAIMLLAGNGPHAKPVSQPKPQKLVHHSLPTTDPPTMPPSFLPSISYIVSETRSSGSNGVTGLGPTKTKASLASTRNNQTAAFSMAPTVGLPQTRKASLARFLEKRKERVINVSPYYVDNKSSIDCRTLMSECVSCPPAHHLH
B4: AT4G36480, cloned prey (protein, UniProt Q94IB8 1-482)
chain: MASNLVEMFNAALNWVTMILESPSARVVLFGVPIRGHFFVEGLLGVVIIILLTRKSYKPPKRPLTEQEIDELCDEWVPEPLIPPITEDMKHEPPVLESAAGPHTTVNGKDVVNFASANYLGLIGHEKLLESCTSALEKYGVGSCGPRGFYGTIDVHLDCETRISKFLGTPDSILYSYGLSTMFSTIPCFCKKGDVIVADEGVHWGIQNGLQLSRSTIVYFKHNDMESLRITLEKIMTKYKRSKNLRRYIVAEAVYQNSGQIAPLDEIVKLKEKYRFRVILDESNSFGVLGRSGRGLAEHHSVPIEKIDVVTAAMGHALATEGGFCTGNARIIDYQRLSSSGYVFSASLPPYLASAAITAIDVIDQNPDMLVKLKQNVALLWKGLSDIKGMSLTSNRESPIVFLKLEKSSGSAKDDLLLLEKMADRALKEDSLLVVSSKRSFLDKCRLPVGIKLYVSAGHSESDLLKASESLKRLASELLLKS
B5: AT3G06850, cloned prey (protein, UniProt Q9M7Z1 1-483)
chain: MIARRIWRSHRFLRPFSSSSVCSPPFRVPEYLSQSSSSPASRPFFVHPPTLMKWGGGSRSWFSNEAMATDSNSGLIDVPLAQTGEGIAECELLKWFVKEGDSVEEFQPLCEVQSDKATIEITSRFKGKVALISHSPGDIIKVGETLVRLAVEDSQDSLLTTDSSEIVTLGGSKQGTENLLGALSTPAVRNLAKDLGIDINVITGTGKDGRVLKEDVLRFSDQKGFVTDSVSSEHAVIGGDSVSTKASSNFEDKTVPLRGFSRAMVKTMTMATSVPHFHFVEEINCDSLVELKQFFKENNTDSTIKHTFLPTLIKSLSMALTKYPFVNSCFNAESLEIILKGSHNIGVAMATEHGLVVPNIKNVQSLSLLEITKELSRLQHLAANNKLNPEDVTGGTITLSNIGAIGGKFGSPLLNLPEVAIIALGRIEKVPKFSKEGTVYPASIMMVNIAADHRVLDGATVARFCCQWKEYVEKPELLMLQMR

These molecules were tested against Novel Interactor of JAZ (NINJA), bait (A. thaliana) (UniProt Q9SV55) (assay: two-hybrid; library screen (Y2H-seq): PJ69-4α bait strain transformed with the A. thaliana AT7 cDNA prey library; SD-Leu-Trp-His + 5 mM 3-AT; preys identified by Sanger sequencing of colonies, qPCR and NGS of pooled prey inserts, against an EMPTY bait screen or the library).

| binding | Molecule |
| --- | --- |
| binds | A. thaliana protein PEAPOD2 (PPD2), library prey (from UniProt Q8GY55 1-315) |
| binds | PPD1 (AT4G14713), library prey (from UniProt Q7XA73 1-313) |
| binds | B1 |
| binds | B2 |

These molecules were tested against Novel Interactor of JAZ (NINJA), bait (A. thaliana) (UniProt Q9SV55) (assay: two-hybrid; binary Y2H, GAL4 system, S. cerevisiae PJ69-4α co-transformed with bait (GAL4 DBD) and prey (GAL4 AD); 30°C; growth on SD-Leu-Trp-His against SD-Leu-Trp).

| binding | Molecule |
| --- | --- |
| binds | B3 |
| no binding | B4 |
| no binding | B5 |

The molecules below were run against T1, TOPLESS amino-terminal region (TPL-N), bait (A. thaliana) in the same assay as above.

| binding | Molecule |
| --- | --- |
| binds | NINJA, prey (from UniProt Q9SV55 1-425) |
| binds | auxin/indole-3-acetic acid 17 (IAA17), cloned prey (from UniProt P93830 1-229) |
